“And” between values parts separate entries of the source, which are not always exact repeats. Equal values may be shown once. Screen size: about 420,000 compounds; about 64,000 (15%) were called active. Inconclusive means that the source gave no clear call. Such entries were picked first, then a sample of the others. Calls follow the shape of the dose curve; as a rule, active = well fitted inhibition curve with a large enough effect; inconclusive = small, poorly fitted or top-dose-only effect; inactive = flat fitted curve, though single readings scatter. Where the call is inconclusive, the potency comes from a doubtful curve fit.
test: qHTS for Inhibitors of human tyrosyl-DNA phosphodiesterase 1 (TDP1): qHTS in cells in absence of CPT; conditions: DT40 Tdp1-/- hTDP1 cells, no CPT, ATP luminescence, 48 h; series mostly up to 46.2 µM; also: nearly all actives have a fitted effect of over 55% in size
In short: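 Growth of hTDP1-complemented DT40 Tdp1-knockout cells is measured by ATP luminescence after at least 48 hr compound exposure at 37 °C, with DMSO substituting for the 20 nM CPT used in the parallel screen.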
Potency is read from the fitted curve at half-maximal effect; tags tell the direction and shape of the fitted curve.

Compound | Potency
Cc1ccc(S(=O)(=O)NC(C)C(=O)Nc2ccc(C(N)=O)cc2)cc1 (stereo not drawn) | inactive
O=C(Nc1cccnc1)c1cccs1 | active: 0.366 µM
CC(=O)Nc1ccc(C(=O)Nc2ccc3c(c2)OCCO3)cc1 | inactive
CCCC1(C(=O)OC)NC(c2ccc(OC)c(OC)c2)C2C(=O)N(c3cccc(C(C)=O)c3)C(=O)C21 (stereo not drawn) | inactive
Cc1ccc(SCC(=O)Nc2ccc3oc(-c4ccc(F)cc4)nc3c2)cc1 | inconclusive: 20.6 µM [inhibitor, single point]
N#Cc1cc(C(=O)c2cc(F)ccc2O)cn(-c2nccs2)c1=O | inconclusive: 16.4 µM [inhibitor, partial curve]
O=C(COc1ccccc1Cl)N1CCN(c2ccc([N+](=O)[O-])c(N3CCOCC3)c2)CC1 | active: 16.4 µM
c1ccc2oc(-c3csc(NCC4CCCO4)n3)cc2c1 (stereo not drawn) | inconclusive: 18.4 µM [inhibitor, single point]
O=c1c2ccccc2c(/C=N/c2ncn[nH]2)c(O)n1Cc1ccccc1 | inconclusive: 18.4 µM [inhibitor, single point] and inconclusive: 29.1 µM [inhibitor, single point]
O=CNc1cc(-c2ccoc2)cn2c(-c3ccc(F)cc3)cnc12 | active: 23.1 µM
CCN1C(=O)CC(c2ccccc2)N(C2CCCC2)c2nc(Nc3ccc(C(=O)NC4CCN(C)CC4)cc3OC)ncc21 (stereo not drawn) | inconclusive: 25.9 µM [inhibitor, single point]
Cc1nn(-c2ccccc2)c(C)c1/C=N\NS(=O)(=O)c1ccc(Cl)cc1 | inactive
CCN(CC)c1ccc(/C=N/NC(=O)OC)c(O)c1 | active: 25.9 µM
N#CC1=C(N)Oc2cc(N)ccc2C1c1cc(Br)cs1 (stereo not drawn) | inconclusive: 20.6 µM [inhibitor, single point]
O=C(NC1CCN(C(=S)NCc2ccco2)CC1)C12CC3CC(CC(C3)C1)C2 | inconclusive: 20.6 µM [inhibitor, partial curve]
Cc1ccc2nc(-c3ccco3)c(Nc3ccccc3)n2c1 | inactive and inconclusive: 10 µM [inhibitor, partial curve]
CCn1cc(C(=O)NCc2ccco2)c(=O)c2cc(S(=O)(=O)N3CCC(C)CC3)ccc21 | inconclusive: 29.1 µM [inhibitor, partial curve, poor fit]
CCC(C(=O)NCc1cccc(C)c1)n1nc(C)c2c(C)n(-c3ccccc3)nc2c1=O (stereo not drawn) | inconclusive: 29.1 µM [inhibitor, partial curve, poor fit]

— PubChem BioAssay AID686978 (National Center for Advancing Translational Sciences (NCATS), 2013)
